Reference: the supplement of paper PMC12217912
The list shows a part of the results. Sequences were assembled here from the parent chain. Inactive controls read about 0.05.

B1: TEV protease; numbered along this chain (parent)
chain: MGESLFKGPRDYNPISSSICHLTNESDGHTTSLYGIGFGPFIITNKHLFRRNNGTLVVQSLHGVFKVKDTTTLQQHLVDGRDMIIIRMPKDFPPFPQKLKFREPQREERICLVTTNFQTKSMSSMVSDTSCTFPSGDGIFWKHWIQTKDGQCGSPLVSTRDGFIVGIHSASNFTNTNNYFTSVPKNFMELLTNQEAQQWVSGWRLNADSVLWGGHKVFMVKPEEPFQPVKEATQL

Variants of: B1
Test: raw area under fraction-flipped curve 0-4 h after induction (AUC4h, not background-subtracted), DNA-recorder readout of cleavage of the substrate (dimensionless); higher = more cleavage of the substrate by the protease variant
Conditions: temperature: 34 °C; time window: 0-4 h after rhamnose induction
Procedure: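 In vivo DNA recorder in E. coli TOP10(DE3) ΔrhaA at 34 °C. Each TEVp single-site mutant (parent TEVp 0) is paired with a single-site variant of the 7-mer TEVs (canonical ENLYFQ|S). The substrate sits between flexible linkers in a Bxb1-sfGFP-TEVs-SsrA fusion, so cleavage stabilises Bxb1 and speeds flipping of a recombination array, read by NGS. The value is the raw area under the fraction-flipped curve over 0-4 h after rhamnose induction (AUC4h), with ≥20 reads per time point. It is not background-subtracted; inactive controls average about 0.047.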
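Note: Bxb1 expression induced with 0.2% (w/v) L-rhamnose at OD600 near 0.5, cultures sampled hourly, flipped fraction per protease–substrate barcode pair counted by paired-end Illumina sequencing.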

## MGESLFKGPRDYNPISSSICHLTNESDGHTTSLYGIGFGPFIITNKHLFRRNNGTLVVQSLHGVFKVKDTTTLQQHLVDGRDMIIIRMPKDFPPFPQKLKFREPQREERICLVTTNFQTKSMSSMVSDTSCTFPSGDGIFWKHWIQTKDGQCGSPLVSTRDGFIVGIHSASNFTNTNNYFTSVPKNFMELLTNQEAQQWVDGWRLNADSVLWGGHKVFMVKPEEPFQPVKEATQL [S201D]
  area with substrate ENLAFQS: 0.0699
  area with substrate ENLCFQS: 0.0623
  area with substrate ENLDFQS: 0.0622
  area with substrate ENLEFQS: 0.0634
  area with substrate ENLFFQS: 0.065
  area with substrate ENLHFQS: 0.0749
  area with substrate ENLIFQS: 0.0737
  area with substrate ENLKFQS: 0.0713
  area with substrate ENLNFQS: 0.0534
  area with substrate ENLPFQS: 0.0659
  area with substrate ENLQFQS: 0.0749
  area with substrate ENLSFQS: 0.0594
  area with substrate ENLWFQS: 0.0703

## MGESLFKGPRDYNPISSSICHLTNESDGHTTSLYGIGFGPFIITNKHLFRRNNGTLVVQSLHGVFKVKDTTTLQQHLVDGRDMIIIRMPKDFPPFPQKLKFREPQREERICLVTTNFQTKSMSSMVSDTSCTFPSGDGIFWKHWIQTKDGQCGSPLVSTRDGFIVGIHSASNFTNTNNYFTSVPKNFMELLTNQEAQQGVSGWRLNADSVLWGGHKVFMVKPEEPFQPVKEATQL [W199G]
  area with substrate ENLAFQS: 0.0464
  area with substrate ENLCFQS: 0.0741
  area with substrate ENLEFQS: 0.0592
  area with substrate ENLFFQS: 0.0806
  area with substrate ENLHFQS: 0.0574
  area with substrate ENLKFQS: 0.0601
  area with substrate ENLLFQS: 0.047
  area with substrate ENLMFQS: 0.0506
  area with substrate ENLNFQS: 0.0588
  area with substrate ENLPFQS: 0.0548
  area with substrate ENLSFQS: 0.0544
  area with substrate ENLWFQS: 0.0689

## MGESLFKGPRDYNPISSSICHLTNESDGHTTSLYGIGFGPFIITNKHLFRRNNGTLVVQSLHGVFKVKDTTTLQQHLVDGRDMIIIRMPKDFPPFPQKLKFREPQREERICLVTTNFQTKSMSSMVSDTSCTFPSGDGIFWKHWIQTKDGQCGSPLVSTRDGFIVGIHSASNFTNTNNYFTSVPKNFMELLTNQEAQQWQSGWRLNADSVLWGGHKVFMVKPEEPFQPVKEATQL [V200Q]
  area with substrate ENLAFQS: 0.041
  area with substrate ENLDFQS: 0.0658
  area with substrate ENLGFQS: 0.0613
  area with substrate ENLKFQS: 0.0779

## MGESLFKGPRDYNPISSSICHLTNESDGHTTSLYGIGFGPFIITNKHLFRRNNGTLVVQSLHGVFKVKDTTTLQQHLVDGRDMIIIRMPKDFPPFPQKLKFREPQREERICLVTTNFQTKSMSSMVSDTSCTFPSGDGIFWKHWIQTKDGQCGSPLVSTRDGFIVGIHSASNFTNTNNYFTSVAKNFMELLTNQEAQQWVSGWRLNADSVLWGGHKVFMVKPEEPFQPVKEATQL [P184A]
  area with substrate ENLAFQS: 0.0619
  area with substrate ENLCFQS: 0.0673
  area with substrate ENLDFQS: 0.0671
  area with substrate ENLEFQS: 0.0519
  area with substrate ENLFFQS: 0.0753
  area with substrate ENLHFQS: 0.0625
  area with substrate ENLIFQS: 0.0696
  area with substrate ENLKFQS: 0.0702
  area with substrate ENLLFQS: 0.0571
  area with substrate ENLNFQS: 0.0649
  area with substrate ENLPFQS: 0.0639
  area with substrate ENLVFQS: 0.0643
  area with substrate ENLWFQS: 0.0612

## MGESLFKGPRDYNPISSSICHLTNESDGHTTSLYGIGFGPFIITNKHLFRRNNGTLVVQSLHGVFKVKDTTTLQQHLVDGRDMIIIRMPKDFPPFPQKLKFREPQREERICLVTTNFQTKSMSSMVSDTSCTFPSGDGIFWKHWIQTKDGQCGSPLVSTRDGFIVGIHSASNFTNTNNYFTSVEKNFMELLTNQEAQQWVSGWRLNADSVLWGGHKVFMVKPEEPFQPVKEATQL [P184E]
  area with substrate ENLAFQS: 0.0543
  area with substrate ENLDFQS: 0.0628
  area with substrate ENLEFQS: 0.0567
  area with substrate ENLFFQS: 0.06
  area with substrate ENLIFQS: 0.0671
  area with substrate ENLKFQS: 0.0905
  area with substrate ENLNFQS: 0.0547
  area with substrate ENLPFQS: 0.0513
  area with substrate ENLSFQS: 0.0424
  area with substrate ENLWFQS: 0.0687

## MGESLFKGPRDYNPISSSICHLTNESDGHTTSLYGIGFGPFIITNKHLFRRNNGTLVVQSLHGVFKVKDTTTLQQHLVDGRDMIIIRMPKDFPPFPQKLKFREPQREERICLVTTNFQTKSMSSMVSDTSCTFPSGDGIFWKHWIQTKDGQCGSPLVSTRDGFIVGIHSASNFTNTNNYFTSVQKNFMELLTNQEAQQWVSGWRLNADSVLWGGHKVFMVKPEEPFQPVKEATQL [P184Q]
  area with substrate ENLAFQS: 0.0511
  area with substrate ENLDFQS: 0.0584
  area with substrate ENLEFQS: 0.0691
  area with substrate ENLFFQS: 0.0557
  area with substrate ENLGFQS: 0.0713
  area with substrate ENLHFQS: 0.0622
  area with substrate ENLKFQS: 0.0551
  area with substrate ENLLFQS: 0.0588
  area with substrate ENLMFQS: 0.0497
  area with substrate ENLNFQS: 0.0588
  area with substrate ENLPFQS: 0.0596
  area with substrate ENLQFQS: 0.0667
  area with substrate ENLSFQS: 0.057
  area with substrate ENLTFQS: 0.0363
  area with substrate ENLWFQS: 0.0542

## MGESLFKGPRDYNPISSSICHLTNESDGHTTSLYGIGFGPFIITNKHLFRRNNGTLVVQSLHGVFKVKDTTTLQQHLVDGRDMIIIRMPKDFPPFPQKLKFREPQREERICLVTTNFQTKSMSSMVSDTSCTFPSGDGIFWKHWIQTKDGQCGSPLVSTRDGFIVGIHSASNFTNTNNYFTSVPKNFMELCTNQEAQQWVSGWRLNADSVLWGGHKVFMVKPEEPFQPVKEATQL [L191C]
  area with substrate ENLAFQS: 0.0594
  area with substrate ENLCFQS: 0.0495
  area with substrate ENLDFQS: 0.06
  area with substrate ENLEFQS: 0.0798
  area with substrate ENLFFQS: 0.0787
  area with substrate ENLHFQS: 0.0667
  area with substrate ENLKFQS: 0.11
  area with substrate ENLLFQS: 0.064
  area with substrate ENLNFQS: 0.0745
  area with substrate ENLPFQS: 0.0666
  area with substrate ENLQFQS: 0.0706
  area with substrate ENLRFQS: 0.0594
  area with substrate ENLSFQS: 0.0151
  area with substrate ENLWFQS: 0.11

## MGESLFKGPRDYNPISSSICHLTNESDGHTTSLYGIGFGPFIITNKHLFRRNNGTLVVQSLHGVFKVKDTTTLQQHLVDGRDMIIIRMPKDFPPFPQKLKFREPQREERICLVTTNFQTKSMSSMVSDTSCTFPSGDGIFWKHWIQTKDGQCGSPLVSTRDGFIVGIHSASNFTNTNNYFTSVPKNFMELLTNGEAQQWVSGWRLNADSVLWGGHKVFMVKPEEPFQPVKEATQL [Q194G]
  area with substrate ENLAFQS: 0.0616
  area with substrate ENLDFQS: 0.0664
  area with substrate ENLEFQS: 0.0652
  area with substrate ENLFFQS: 0.0799
  area with substrate ENLGFQS: 0.0874
  area with substrate ENLHFQS: 0.072
  area with substrate ENLIFQS: 0.0863
  area with substrate ENLKFQS: 0.0778
  area with substrate ENLNFQS: 0.0681
  area with substrate ENLPFQS: 0.0651
  area with substrate ENLRFQS: 0.0666
  area with substrate ENLVFQS: 0.101

## MGESLFKGPRDYNPISSSICHLTNESDGHTTSLYGIGFGPFIITNKHLFRRNNGTLVVQSLHGVFKVKDTTTLQQHLVDGRDMIIIRMPKDFPPFPQKLKFREPQREERICLVTTNFQTKSMSSMVSDTSCTFPSGDGIFWKHWIQTKDGQCGSPLVSTRDGFIVGIHSASNFYNTNNYFTSVPKNFMELLTNQEAQQWVSGWRLNADSVLWGGHKVFMVKPEEPFQPVKEATQL [T174Y]
  area with substrate ENLAFQS: 0.0869
  area with substrate ENLCFQS: 0.0721
  area with substrate ENLDFQS: 0.0762
  area with substrate ENLEFQS: 0.067
  area with substrate ENLGFQS: 0.078
  area with substrate ENLHFQS: 0.055
  area with substrate ENLKFQS: 0.0726
  area with substrate ENLNFQS: 0.0658
  area with substrate ENLRFQS: 0.0692
  area with substrate ENLSFQS: 0.0583

## MGESLFKGPRDYNPISSSICHLTNESDGHTTSLYGIGFGPFIITNKHLFRRNNGTLVVQSLHGVFKVKDTTTLQQHLVDGRDMIIIRMPKDFPPFPQKLKFREPQREERICLVTTNFQTKSMSSMVSDTSCTFPSGDGIFWKHWIQTKDGQCGSPLVSTRDGFIVGIHSASNFANTNNYFTSVPKNFMELLTNQEAQQWVSGWRLNADSVLWGGHKVFMVKPEEPFQPVKEATQL [T174A]
  area with substrate ENLAFQS: 0.0674
  area with substrate ENLEFQS: 0.0788
  area with substrate ENLFFQS: 0.0958
  area with substrate ENLKFQS: 0.0654
  area with substrate ENLLFQS: 0.0768
  area with substrate ENLNFQS: 0.0622
  area with substrate ENLPFQS: 0.0773
